# Source: the supplement of paper PMC4604168 (melanoma cell lines)
# The other results are listed elsewhere or left out. Most values come without repeats; read them as rough.
# How the values were obtained:
# Experiment in all cases: cell count relative to DMSO control; melanoma cells; higher = more viable cells
# Settings in all cases: library dose: low library concentration; 72 h
# WM115 = test system: WM115
# WM1716 = test system: WM1716
# WM1745 = test system: WM1745
# WM3526 = test system: WM3526
# WM3619 = test system: WM3619
# WM451Lu = test system: WM451Lu
# 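Further: cell number obtained by counting DAPI-stained nuclei in high-throughput microscope images with image analysis software, screen run in 1,536-well plates.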
SMILES,cell count (WM115) [%],cell count (WM1716) [%],cell count (WM1745) [%],cell count (WM3526) [%],cell count (WM3619) [%],cell count (WM451Lu) [%]
"CN(C)S(=O)(=O)c1ccc2c(c1)/C(=C/c1cc3c([nH]1)CCCC3)C(=O)N2 + CCc1ccc(CCOc2ccc(CC3SC(=O)NC3=O)cc2)nc1 [pioglitazone] (first compound 0.4 µM, partner dose 2 µM)",74,108,80.9,99.8,115,128
"CO[C@@H]1[C@H](N(C)C(=O)c2ccccc2)C[C@H]2O[C@]1(C)n1c3ccccc3c3c4c(c5c6ccccc6n2c5c31)C(=O)NC4 [Midostaurin] + O=S(=O)(c1ccccc1)N(CC(F)(F)F)c1ccc(C(O)(C(F)(F)F)C(F)(F)F)cc1 [T0901317] (first compound 0.08 µM, partner dose 1.4 µM)",89.6,80.5,75.5,84.4,80.1,101
"C[C@]1(c2nc3c(C(N)=O)cccc3[nH]2)CCCN1 [Veliparib] + Oc1nc(-c2ccc(C(F)(F)F)cc2)nc2c1CSCC2 [XAV939] (first compound 1.4 µM, partner dose 2 µM)",89,68.7,76.2,93,81.5,116
"C=CCn1c(=O)c2cnc(Nc3ccc(N4CCN(C)CC4)cc3)nc2n1-c1cccc(C(C)(C)O)n1 + O=C(Nc1ccccc1)c1cc([N+](=O)[O-])ccc1Cl [GW9662] (first compound 0.02 µM, partner dose 2 µM)",89.9,94.8,83.5,107,59.4,119
"Cc1nc(Nc2ncc(C(=O)Nc3c(C)cccc3Cl)s2)cc(N2CCN(CCO)CC2)n1 [dasatanib] + CN(C)S(=O)(=O)c1ccc2c(c1)/C(=C/c1cc3c([nH]1)CCCC3)C(=O)N2 [SU6656] (first compound 0.004 µM, partner dose 0.4 µM)",53.2,73.1,61.1,105,93.6,67
"Cc1nc(Nc2ncc(C(=O)Nc3c(C)cccc3Cl)s2)cc(N2CCN(CCO)CC2)n1 [dasatanib] + COC(=O)c1sccc1S(=O)(=O)Nc1ccc(Nc2ccccc2)cc1OC [GSK0660] (first compound 0.004 µM, partner dose 1 µM)",64.1,60.2,60.2,97.1,104,65.3
"NC(=O)Nc1cc(-c2cccc(F)c2)sc1C(=O)N[C@H]1CCCNC1 + C[C@@H]1CCN(C(=O)CC#N)C[C@@H]1N(C)c1ncnc2[nH]ccc12 [CP690550] (first compound 0.02 µM, partner dose 1 µM)",92.6,83.6,95.2,84.9,69.6,92.3
"CO[C@@H]1[C@H](N(C)C(=O)c2ccccc2)C[C@H]2O[C@]1(C)n1c3ccccc3c3c4c(c5c6ccccc6n2c5c31)C(=O)NC4 [Midostaurin] + Oc1cc(-c2nc(-c3ccccc3)[nH]c2-c2ccncc2)ccc1Cl [L779450] (first compound 0.08 µM, partner dose 0.2 µM)",69.2,99,78.2,70.8,77.2,96.5
"NCC(=O)Nc1ccc(-n2nc(C(F)(F)F)cc2-c2ccc3c(ccc4ccccc43)c2)cc1 + COC(=O)c1sccc1S(=O)(=O)Nc1ccc(Nc2ccccc2)cc1OC [GSK0660] (first compound 1 µM, partner dose 1 µM)",108,99.7,97.5,42.9,104,63.1
"CO[C@@H]1[C@H](N(C)C(=O)c2ccccc2)C[C@H]2O[C@]1(C)n1c3ccccc3c3c4c(c5c6ccccc6n2c5c31)C(=O)NC4 [Midostaurin] + CC(C)CCN1c2nc(Nc3cc(F)c(O)c(F)c3)ncc2N(C)C(=O)C1C [BID1870] (first compound 0.08 µM, partner dose 0.2 µM)",84.8,76.1,80,97.6,74.7,95.2
"CN(C)S(=O)(=O)c1ccc2c(c1)/C(=C/c1cc3c([nH]1)CCCC3)C(=O)N2 + O=C(Nc1ccccc1)c1cc([N+](=O)[O-])ccc1Cl [GW9662] (first compound 0.4 µM, partner dose 2 µM)",79.7,107,87.9,109,93.3,98.9
"C=CCn1c(=O)c2cnc(Nc3ccc(N4CCN(C)CC4)cc3)nc2n1-c1cccc(C(C)(C)O)n1 + OCCn1cc(-c2cnc3nnn(Cc4ccc5ncccc5c4)c3n2)cn1 [PF04217903] (first compound 0.02 µM, partner dose 1 µM)",91,91.9,67.9,45.1,92.5,75.6
"C=CCn1c(=O)c2cnc(Nc3ccc(N4CCN(C)CC4)cc3)nc2n1-c1cccc(C(C)(C)O)n1 + COc1cc2ncnc(Nc3ccc(Oc4ccccc4)cc3)c2cc1OC [SrcI1] (first compound 0.02 µM, partner dose 2 µM)",77,92.7,84.3,101,47.7,152
"OCCn1cc(-c2cnc3nnn(Cc4ccc5ncccc5c4)c3n2)cn1 + Cn1cc(/C=C2\C(=O)Nc3cccnc32)c2ccccc21 [GW441756] (first compound 1 µM, partner dose 0.4 µM)",101,80.7,113,112,114,104
"Cc1nc(Nc2ncc(C(=O)Nc3c(C)cccc3Cl)s2)cc(N2CCN(CCO)CC2)n1 [dasatanib] + CC(C)(C)c1cnc(CSc2cnc(NC(=O)C3CCNCC3)s2)o1 [SNS-032] (first compound 0.004 µM, partner dose 0.01 µM)",77.3,60.7,73.8,110,103,64.6
"NC(=O)Nc1cc(-c2cccc(F)c2)sc1C(=O)N[C@H]1CCCNC1 + CCN(CC)CCCCNc1ncc2cc(-c3cc(OC)cc(OC)c3)c(NC(=O)NC(C)(C)C)nc2n1 [PD173074] (first compound 0.02 µM, partner dose 0.1 µM)",99.9,91.1,97.4,67.5,23.2,93.5
"C=CCn1c(=O)c2cnc(Nc3ccc(N4CCN(C)CC4)cc3)nc2n1-c1cccc(C(C)(C)O)n1 + COC(=O)c1sccc1S(=O)(=O)Nc1ccc(Nc2ccccc2)cc1OC [GSK0660] (first compound 0.02 µM, partner dose 1 µM)",88.2,91.8,92.3,118,78.1,97.5
"OCCn1cc(-c2cnc3nnn(Cc4ccc5ncccc5c4)c3n2)cn1 + COc1cc2ncnc(Nc3ccc(Oc4ccccc4)cc3)c2cc1OC [SrcI1] (first compound 1 µM, partner dose 2 µM)",115,100,91.8,108,118,132
"NC(=O)Nc1cc(-c2cccc(F)c2)sc1C(=O)N[C@H]1CCCNC1 + O=C1NC(=O)/C(=C/c2ccc(-c3ccc(F)cc3O)o2)S1 [AS252424] (first compound 0.02 µM, partner dose 1 µM)",86.5,84.7,86.1,74.2,70,94.3
"NC(=O)Nc1cc(-c2cccc(F)c2)sc1C(=O)N[C@H]1CCCNC1 + COc1ccc(-c2ccc3c(N4CCOCC4)nc(N4C[C@@H](C)O[C@@H](C)C4)nc3n2)cc1CO [KU0063794] (first compound 0.02 µM, partner dose 0.02 µM)",86.1,92.4,90.4,78,45.1,93.9
"C[C@]1(c2nc3c(C(N)=O)cccc3[nH]2)CCCN1 [Veliparib] + CCN(CC)CCCCNc1ncc2cc(-c3cc(OC)cc(OC)c3)c(NC(=O)NC(C)(C)C)nc2n1 [PD173074] (first compound 1.4 µM, partner dose 0.1 µM)",76.4,88.3,86,89.8,98.9,101
"C=CCn1c(=O)c2cnc(Nc3ccc(N4CCN(C)CC4)cc3)nc2n1-c1cccc(C(C)(C)O)n1 + Oc1nc(-c2ccc(C(F)(F)F)cc2)nc2c1CSCC2 [XAV939] (first compound 0.02 µM, partner dose 2 µM)",79.8,86.2,65,82.8,85.6,100
"NC(=O)Nc1cc(-c2cccc(F)c2)sc1C(=O)N[C@H]1CCCNC1 + COC(=O)c1sccc1S(=O)(=O)Nc1ccc(Nc2ccccc2)cc1OC [GSK0660] (first compound 0.02 µM, partner dose 1 µM)",87,95,122,94.2,72.6,138
